From the supplement of paper PMC3334620
The full ranking holds about 33,000 sequences; the median of “E-score (-0.5 to 0.5)” is about -0.053, and the highest 2% start at about 0.37. This is one part of the list.

target: Hap1 (UniProt P0CE41); test: PBM E-score (8-mer binding enrichment) (E-score (-0.5 to 0.5)); higher = stronger / more preferred TF binding; most listed sequences are background and not binding sites; conditions: protein concentration: 200 nM; construct: GST-DNA-binding domain
Procedure, shortened: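 E-scores (a modified Wilcoxon-Mann-Whitney statistic) were assigned by the Universal PBM Analysis Suite to every ungapped eight-base word pooled with its reverse complement. The input came from universal all-10-mer Agilent arrays made double-stranded by primer extension and probed with GST-tagged yeast transcription factors at about 100-200 nM. Fluorescent anti-GST detected bound protein, and masliner normalised the scans.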

Sequence of UniProt P0CE41 (P0CE41 whole entry, the tested form may be a part): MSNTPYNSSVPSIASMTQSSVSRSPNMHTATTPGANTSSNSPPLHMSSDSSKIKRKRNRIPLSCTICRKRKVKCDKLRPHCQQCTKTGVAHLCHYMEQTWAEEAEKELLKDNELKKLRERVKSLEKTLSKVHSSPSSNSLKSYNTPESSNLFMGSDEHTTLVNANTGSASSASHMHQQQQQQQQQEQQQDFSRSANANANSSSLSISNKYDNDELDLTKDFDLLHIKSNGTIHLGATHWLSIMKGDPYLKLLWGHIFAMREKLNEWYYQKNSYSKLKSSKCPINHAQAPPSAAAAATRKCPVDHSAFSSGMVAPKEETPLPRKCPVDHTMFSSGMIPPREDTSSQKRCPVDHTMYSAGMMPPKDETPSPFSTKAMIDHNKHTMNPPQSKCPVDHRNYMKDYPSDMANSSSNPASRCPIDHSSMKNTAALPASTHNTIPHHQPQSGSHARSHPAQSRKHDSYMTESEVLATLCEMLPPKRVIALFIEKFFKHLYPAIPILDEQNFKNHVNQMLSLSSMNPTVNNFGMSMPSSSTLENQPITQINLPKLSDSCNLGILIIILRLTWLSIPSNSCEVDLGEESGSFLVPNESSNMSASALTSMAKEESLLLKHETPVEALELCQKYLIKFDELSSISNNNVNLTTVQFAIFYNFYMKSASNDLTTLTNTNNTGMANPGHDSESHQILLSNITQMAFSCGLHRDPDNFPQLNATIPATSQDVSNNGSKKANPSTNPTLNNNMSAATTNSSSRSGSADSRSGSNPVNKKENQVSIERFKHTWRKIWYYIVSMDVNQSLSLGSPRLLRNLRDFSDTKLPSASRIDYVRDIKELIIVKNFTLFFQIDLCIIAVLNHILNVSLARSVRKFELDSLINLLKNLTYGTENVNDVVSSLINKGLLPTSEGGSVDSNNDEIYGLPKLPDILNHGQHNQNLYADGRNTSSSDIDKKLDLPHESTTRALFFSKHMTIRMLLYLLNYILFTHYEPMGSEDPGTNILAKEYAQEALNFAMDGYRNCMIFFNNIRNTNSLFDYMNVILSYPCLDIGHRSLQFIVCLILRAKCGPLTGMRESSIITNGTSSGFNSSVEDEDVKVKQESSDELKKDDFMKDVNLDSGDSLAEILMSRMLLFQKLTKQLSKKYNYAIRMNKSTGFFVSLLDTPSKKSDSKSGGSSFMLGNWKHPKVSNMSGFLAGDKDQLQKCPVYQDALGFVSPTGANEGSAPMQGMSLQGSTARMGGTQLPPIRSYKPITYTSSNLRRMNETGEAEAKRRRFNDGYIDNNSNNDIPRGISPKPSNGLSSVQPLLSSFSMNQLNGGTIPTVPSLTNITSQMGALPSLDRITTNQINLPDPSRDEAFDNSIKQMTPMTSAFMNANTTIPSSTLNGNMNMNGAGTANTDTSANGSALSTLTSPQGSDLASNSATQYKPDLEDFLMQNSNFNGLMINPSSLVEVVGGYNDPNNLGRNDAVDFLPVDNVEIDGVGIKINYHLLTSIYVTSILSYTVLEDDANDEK

Sequence	PBM E-score
GATGGTCA	0.00252
AAATCAGG	-0.227
CCAGAGGA	-0.19
ACACGAGG	-0.144
CCGAACGC	0.311
CCTCCGAG	0.335
TGCAAGAA	-0.184
GAATGGAA	-0.0233
GGATCGGA	0.384
CTTAGATC	-0.0657
CTGAACAA	-0.102
CGAAATCG	0.281
ACGTCGGA	0.256
ACAGCTGA	-0.173
AGAATTAT	0.0541
CGCGCCGC	0.228
CATGGACG	0.039
CTGTGCCA	-0.156
CGCTCCCG	-0.0431
ACCAACCC	-0.105
ACTGCTCC	0.134
AGTCGGGC	0.157
GGAGCTGA	0.0448
AACGCGTG	-0.148
CTTCCTCC	-0.109

Sequence	PBM E-score
AGGTTCAG	-0.1
CTTAAAAA	-0.197
AAGTCACC	-0.118
CTAAGCTA	-0.032
CGCAGCGA	0.027
CGCGCGTC	0.185
ATTGTCGC	-0.00025
ATATGAGG	-0.195
CGAAGCCC	0.102
GGCCACAA	-0.0502
AAGCAGTG	-0.0692
GAAACGGA	0.277
CGCAGGCC	0.0139
CCGGCACG	0.214
GGGTCCCA	-0.0688
CGGCTAAG	0.149
CTCGAGGC	-0.175
AAAGCTAG	-0.14
CCCCGCAG	0.176
ACGAAAAA	-0.167
CCTCTATA	-0.246
ACGGCTAG	-0.114
GGTGACTA	-0.018
CCTGATGC	0.0859
AACCCATT	0.0904

Sequence	PBM E-score
ACTGTATG	-0.0283
CGGCCAGA	0.225
CACGTCAC	-0.125
GGGATCCA	0.146
CGTGTAGA	-0.0941
CAATATAA	0.105
TGCGAGCA	-0.103
CGTACGGC	-0.00145
ATATAACG	0.115
AGGTGACG	-0.117
AAGAGTCG	-0.0788
CCCGAGAA	0.351
ATTGAACA	-0.00279
ATACCCAG	-0.148
GTTAGAGA	-0.34
AATTCCCA	-0.191
CTCTACTC	-0.144
AAACTAGA	-0.198
AGAACTTA	0.0839
CTTTCGAA	-0.0674
ATAGGTAC	-0.0096
AGACCATG	-0.302
ACCTAGGG	-0.126
CGAACAAC	0.122
ATAATACA	0.0148

Sequence	PBM E-score
CGTCAGCC	0.15
GATGAACC	0.0878
GATGGGCC	0.126
ATAGTCCG	0.369
AGTCATAG	-0.203
TAAGAGAA	-0.265
TGAACACA	-0.203
GATGGCTA	-0.0372
AACTTCAC	-0.166
CCCTTTCG	0.169
AGGCTAGC	-0.205
AGTTCTAG	-0.0549
CAGCCAAG	-0.236
AACTGGGG	-0.0566
ATGTAACG	0.0594
AAAGACAC	-0.0224
ATACTACC	0.0678
GAGTTCAC	0.00848
AAAAAGCA	-0.314
TACCAATA	-0.178
AAAGGATG	-0.197
AAAGTCAC	-0.126
CCACATAG	-0.0279
TCACTACA	-0.0802
CCCCCTAA	-0.234

Sequence	PBM E-score
CAGTAAGG	-0.213
CTTAGCGC	0.159
AAACGAAT	-0.133
AGAACGAC	-0.168
ACCGTGCT	-0.22
GGACCGCC	0.138
CGCTCGAC	-0.218
CTCCTGAC	-0.0691
TCGGATCA	0.353
CAGGTATG	-0.00123
AGTATTGG	-0.245
AAACGTAA	-0.179
ATATCACA	-0.238
AGATGGTA	-0.0212
CAAGGGAC	-0.154
CACGGGTA	-0.0714
AGCGTCTG	-0.203
ACCCTTAG	-0.23
TATTCAGA	-0.194
ATCGTTCC	0.0969
CTGCTAAA	0.0489
GCGGGACA	0.132
AGTTACAT	-0.157
CGTGGCGC	0.0338
CCCGGACA	0.39

Sequence	PBM E-score
CTTATGTA	-0.215
ATCCAGCC	0.133
TAACGTAA	-0.102
ACACGCGA	-0.0698
TAGATTCA	-0.188
GTGCGTCA	-0.0789
CAACTAGC	0.0186
CTTTTAAC	0.0176
GTGCCGTA	0.1
GGTACGCA	-0.152
CGGACAGA	0.333
CACGAGAC	-0.188
CCGAACTA	0.324
ATTCAGAG	-0.00668
GTCGGTCA	0.278
ACGCCTAG	-0.223
AAACGGTT	-0.089
CGGGTCAC	0.0515
CGTATCAG	0.00494
AGAATCGA	-0.191
AAAGTCCG	0.446
AGACTGAA	-0.191
CCCGTTCG	0.241
ACCTCCAT	-0.0591
AACTTGGT	-0.119

Sequence	PBM E-score
CCGCCAAC	0.204
GTGAGAAA	0.0981
CCACGGGG	0.105
AAAGAGTT	-0.286
GTTAGAAA	0.0116
AAACAACC	-0.118
GCCGTACA	0.0272
CCCGCATA	0.124
AGAGAGGA	-0.217
ATTTCTGC	0.0483
CTTAAGCA	-0.116
ACCGTTAG	0.11
AGCCAATG	-0.225
AATATGAC	-0.0304
CCTATTAA	-0.123
CTCTCAGA	-0.332
ACTCGTGG	-0.235
CAGATAAC	0.132
GAGGAGGA	-0.303
CCCTGCCG	0.0797
AATTATTG	-0.0617
ACCGGTAA	0.406
GTGTCGTA	-0.162
ACATGGAG	-0.0668
GAGCTCCA	-0.148

Sequence	PBM E-score
ATAATTAA	0.0307
AGCATCAC	-0.209
ACAAGTGT	-0.17
ACGATCTG	-0.144
AGCAGGGC	-0.116
GCACCGCC	0.138
GCATGAAA	-0.228
CGCCCTGA	-0.116
CTGGTATC	-0.056
AAGACATT	-0.0784
GATCGGTA	0.283
ACATTCCT	-0.0932
CATCTCTA	-0.154
AAGAACCG	0.198
GACCGCAA	0.228
GCAACCTA	-0.245
GCGGTTCA	-0.0191
CCCCCAAG	-0.195
AGCCGAAC	0.227
CCAGCACG	-0.13
GCCAAAAA	-0.0668
ATAAACAC	0.0203
CGCCGATC	0.326
TGGGACAA	-0.222
ACGAACAG	-0.11

Sequence	PBM E-score
AACTACAT	-0.196
ACTTCTAT	-0.128
CCTCCAGG	-0.256
CACAAACC	-0.0855
ATGCACGA	-0.0476
CTCAGGAC	-0.0684
TGACTAAA	-0.243
CTAAATAC	-0.0213
CTTGATGA	-0.0237
TGGGCCCA	0.00355
TAACCAAA	-0.07
AAAAGGCT	0.0332
ACTAGGTA	-0.184
CCGACATA	0.256
ATTGAGAA	-0.0261
ACCGTCGA	-0.0899
GGCGTAAA	0.137
ACCTGTCG	0.049
CGTCGAAG	-0.151
CGTCCATC	-0.00073
CGAAGATC	0.00962
AGTGGTAA	-0.143
CCTTGGAA	-0.164
GTGGCGGA	0.136
AGGATACA	-0.212

Sequence	PBM E-score
AAACTCTT	-0.164
GACAAGGA	-0.157
CTAGTGCC	0.0006
AGGGATTA	-0.136
AGAAATCC	0.194
AATCCGTC	0.232
CGAAGAAG	-0.035
ACCCAAGC	-0.0723
GAACGGGA	0.144
CCTGAGCA	-0.151
ACTACCAC	-0.204
ACTACCTG	-0.0916
GAGTGGCA	0.0149
AGTCTCAA	-0.154
GTACACAC	-0.0616
CAGCCACG	-0.0824
ACAAGGCA	-0.133
CCTAATTA	-0.126
CCCCCATC	-0.154
GTCCTTAA	-0.159
AATCCGGC	0.37
TAGGTCAA	-0.27
CGTAATAG	-0.0367
TCCGTCCA	0.227
ATAGTCTA	0.0347

Sequence	PBM E-score
CAGTCATC	-0.00405
CCACCTGC	-0.121
CCTTTCTC	-0.16
CGTACCGA	0.164
ACAAACAA	-0.0939
CTGCATCC	-0.0309
ATATATTC	0.211
ACCCGAAA	0.31
ACGAGGTC	-0.17
GGGTATTA	0.282
CATAGAGG	-0.284
GCGGGTAA	0.0277
AGCATTAT	-0.199
GGCCGTAC	0.216
CGTCATGA	-0.0955
ATACCGAG	0.285
CTCATTTC	-0.00804
CGTGAACA	0.0105
AATTAGGC	-0.118
ATATGTGC	0.00425
ATTTGCCC	0.16
ACTGGTAC	0.0233
GTAGTGGA	-0.0241
ACCACTCG	0.0402
CCCTCCTC	-0.185

Sequence	PBM E-score
AGTCTTTG	-0.308
ATAGCAGC	-0.11
AAATAAGT	-0.138
ACCCTAGC	-0.01
ATACATAC	-0.0954
GCTGAGGA	-0.111
ACGGTTAG	-0.111
TAACAGCA	-0.0526
AGGAATGC	-0.253
AATCCGAG	0.338
AACAGCAC	0.0482
GGCCTTGA	0.00297
TCTTTCAA	-0.249
CTTTGACC	0.0134
ACGTACCA	-0.204
AATCTCTC	-0.0993
GCATCGGA	0.383
CGGATTCA	0.175
GTTTTGCA	-0.151
GAGCTTCA	-0.0142
AGTTTCTG	-0.104
CGAACGAA	0.0587
AGCTCTCA	0.027
GTTTAGTA	-0.0458
AAGCTCTG	-0.315

Sequence	PBM E-score
CTAAGCAA	-0.168
ACGAATTG	-0.118
GATCGAAC	-0.0567
CAAGTTTA	-0.0421
GCGGTTAC	0.199
CCCAGTGC	0.0922
GTACCCAA	-0.264
CACATCTA	-0.0395
GACTAGTC	-0.117
AGTATACC	0.0345
CAGAACCC	-0.0493
CTGCCCTC	-0.222
GCGACCAC	0.0929
AGAACCGA	0.253
AATCCGAA	0.366
GCATTTCA	-0.03
AGGTTCGG	0.252
GATATGGA	0.237
AGGCGACA	0.0143
ATACATTA	-0.15
ATCCGTGG	0.329
AAGCTGGC	-0.198
CAGGGAAA	-0.0363
AATGTCCC	0.104
AGACCGGC	0.235

Sequence	PBM E-score
AGGGGTGA	-0.27
CAAACGGG	0.11
CCGCAGCG	0.2
GAACCGTA	0.0759
GCGTAAAC	0.244
CTCGCTGA	0.0537
ACTATCGA	-0.0147
ACTTTGGC	0.00084
ATAAAACG	0.129
GGCACAAC	-0.0668
TGTTCCAA	-0.217
CAAAGGTA	-0.221
CCTCACAC	-0.16
ACTACTGC	-0.124
CGAGCTCC	0.181
GTTCCTAA	0.0422
CCAACTCA	-0.0392
ACATTGAC	-0.114
GCATGAGA	-0.107
